Results published in article PMC6377148.
No constants are given. Whether binding was seen depends on the method and setting. Binding seen in cells or lysates may run through a third protein. Some entries that bind do so weakly or less than the wild type. For part of these data: Where a sequence is shown, tags or fusion partners need not be part of it.

By UniProt entry, the sequences of proteins in these tests, tags left out.
UniProt Q7Z2Z1: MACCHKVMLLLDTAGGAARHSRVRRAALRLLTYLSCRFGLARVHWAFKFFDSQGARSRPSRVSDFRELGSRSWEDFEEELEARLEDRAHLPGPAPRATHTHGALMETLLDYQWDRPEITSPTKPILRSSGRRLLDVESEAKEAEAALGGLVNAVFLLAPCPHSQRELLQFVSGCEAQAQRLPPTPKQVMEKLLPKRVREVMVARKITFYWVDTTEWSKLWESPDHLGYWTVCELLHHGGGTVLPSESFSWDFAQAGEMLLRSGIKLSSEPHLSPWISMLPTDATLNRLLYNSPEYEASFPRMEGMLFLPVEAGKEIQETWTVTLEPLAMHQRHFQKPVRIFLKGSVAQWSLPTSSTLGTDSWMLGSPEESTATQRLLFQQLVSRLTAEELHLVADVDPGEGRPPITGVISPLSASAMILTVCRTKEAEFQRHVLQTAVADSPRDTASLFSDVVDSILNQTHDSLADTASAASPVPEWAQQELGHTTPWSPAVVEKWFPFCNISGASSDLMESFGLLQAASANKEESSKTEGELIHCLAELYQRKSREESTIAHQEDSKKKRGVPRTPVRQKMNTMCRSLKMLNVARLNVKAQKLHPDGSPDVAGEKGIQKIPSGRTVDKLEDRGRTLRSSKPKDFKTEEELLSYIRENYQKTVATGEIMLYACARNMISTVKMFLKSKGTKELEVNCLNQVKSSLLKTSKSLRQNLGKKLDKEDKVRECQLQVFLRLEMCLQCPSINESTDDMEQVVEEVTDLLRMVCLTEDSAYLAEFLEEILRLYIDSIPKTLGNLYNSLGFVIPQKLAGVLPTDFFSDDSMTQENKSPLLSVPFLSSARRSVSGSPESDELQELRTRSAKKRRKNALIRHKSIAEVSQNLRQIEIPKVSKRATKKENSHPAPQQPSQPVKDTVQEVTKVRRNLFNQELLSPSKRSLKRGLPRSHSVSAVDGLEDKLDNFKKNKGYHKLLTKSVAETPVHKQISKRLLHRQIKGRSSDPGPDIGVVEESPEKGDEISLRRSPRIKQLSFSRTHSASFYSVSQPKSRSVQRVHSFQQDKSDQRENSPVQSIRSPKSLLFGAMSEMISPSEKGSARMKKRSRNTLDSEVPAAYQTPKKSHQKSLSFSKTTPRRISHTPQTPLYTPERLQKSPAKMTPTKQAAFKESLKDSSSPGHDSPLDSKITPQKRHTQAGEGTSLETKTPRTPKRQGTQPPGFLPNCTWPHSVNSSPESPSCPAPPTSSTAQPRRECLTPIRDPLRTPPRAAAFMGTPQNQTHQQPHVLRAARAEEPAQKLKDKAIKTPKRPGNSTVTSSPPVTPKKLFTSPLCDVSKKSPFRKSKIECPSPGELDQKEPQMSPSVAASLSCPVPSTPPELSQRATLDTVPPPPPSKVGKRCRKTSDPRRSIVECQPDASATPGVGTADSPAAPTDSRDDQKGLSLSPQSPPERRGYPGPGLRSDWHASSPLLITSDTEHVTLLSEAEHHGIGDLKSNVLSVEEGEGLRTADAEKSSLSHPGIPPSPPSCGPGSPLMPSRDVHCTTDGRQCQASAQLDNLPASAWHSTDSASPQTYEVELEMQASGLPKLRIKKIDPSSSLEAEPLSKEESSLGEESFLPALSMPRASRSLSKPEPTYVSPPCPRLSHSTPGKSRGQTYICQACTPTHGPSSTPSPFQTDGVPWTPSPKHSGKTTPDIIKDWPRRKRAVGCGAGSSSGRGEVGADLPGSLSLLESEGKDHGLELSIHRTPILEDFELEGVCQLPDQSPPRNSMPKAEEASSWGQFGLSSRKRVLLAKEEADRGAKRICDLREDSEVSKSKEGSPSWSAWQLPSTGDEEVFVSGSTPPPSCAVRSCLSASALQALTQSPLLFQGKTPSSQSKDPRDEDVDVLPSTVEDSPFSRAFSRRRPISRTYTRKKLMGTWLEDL

How the values were obtained:
[1] = biological target: T1, MTBP-Δ516–769–3×Flag-TEV2-GFP-NLS (mSld7) (human) (UniProt Q96DY7); experiment: co-IP; anti-GFP (GFP nanobodies, mock-coupled control beads) IP from native lysates of HeLa Flip-In T-Rex lines expressing MTBP-3×Flag-TEV2-GFP (WT or deletions); endogenous Treslin/TICRR and Cdk8 by immunoblot
T1 sequence: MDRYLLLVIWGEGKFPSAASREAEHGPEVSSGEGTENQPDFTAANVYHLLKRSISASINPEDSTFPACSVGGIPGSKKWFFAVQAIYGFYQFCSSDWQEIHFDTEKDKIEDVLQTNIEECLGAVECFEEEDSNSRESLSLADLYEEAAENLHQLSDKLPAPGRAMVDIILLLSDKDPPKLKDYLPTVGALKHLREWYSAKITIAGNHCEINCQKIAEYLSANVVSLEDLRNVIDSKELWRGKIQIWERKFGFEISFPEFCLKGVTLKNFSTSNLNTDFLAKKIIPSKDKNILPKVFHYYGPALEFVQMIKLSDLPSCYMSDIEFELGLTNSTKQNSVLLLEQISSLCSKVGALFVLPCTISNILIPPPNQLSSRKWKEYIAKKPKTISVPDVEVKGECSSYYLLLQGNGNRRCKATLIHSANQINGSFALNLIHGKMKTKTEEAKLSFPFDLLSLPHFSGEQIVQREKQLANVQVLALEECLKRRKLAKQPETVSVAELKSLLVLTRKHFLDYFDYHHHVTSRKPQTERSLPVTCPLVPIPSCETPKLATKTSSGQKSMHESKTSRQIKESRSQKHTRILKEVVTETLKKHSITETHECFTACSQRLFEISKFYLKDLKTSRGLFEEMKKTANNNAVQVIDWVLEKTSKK

[2] = biological target: T2, MTBP lacking amino acids D2 to S31 (293T) (human) (UniProt Q96DY7); experiment: co-IP; 293T transiently transfected, Fig 2B lanes 1–5: lanes 1–3 C-terminally Flag-GFP-tagged MTBP on anti-GFP nanobodies, the other lanes 3×Flag-tagged MTBP on anti-Flag; which lane holds which N-terminal deletion is not told; endogenous Treslin/TICRR and Cdk8 by immunoblot
T2 sequence: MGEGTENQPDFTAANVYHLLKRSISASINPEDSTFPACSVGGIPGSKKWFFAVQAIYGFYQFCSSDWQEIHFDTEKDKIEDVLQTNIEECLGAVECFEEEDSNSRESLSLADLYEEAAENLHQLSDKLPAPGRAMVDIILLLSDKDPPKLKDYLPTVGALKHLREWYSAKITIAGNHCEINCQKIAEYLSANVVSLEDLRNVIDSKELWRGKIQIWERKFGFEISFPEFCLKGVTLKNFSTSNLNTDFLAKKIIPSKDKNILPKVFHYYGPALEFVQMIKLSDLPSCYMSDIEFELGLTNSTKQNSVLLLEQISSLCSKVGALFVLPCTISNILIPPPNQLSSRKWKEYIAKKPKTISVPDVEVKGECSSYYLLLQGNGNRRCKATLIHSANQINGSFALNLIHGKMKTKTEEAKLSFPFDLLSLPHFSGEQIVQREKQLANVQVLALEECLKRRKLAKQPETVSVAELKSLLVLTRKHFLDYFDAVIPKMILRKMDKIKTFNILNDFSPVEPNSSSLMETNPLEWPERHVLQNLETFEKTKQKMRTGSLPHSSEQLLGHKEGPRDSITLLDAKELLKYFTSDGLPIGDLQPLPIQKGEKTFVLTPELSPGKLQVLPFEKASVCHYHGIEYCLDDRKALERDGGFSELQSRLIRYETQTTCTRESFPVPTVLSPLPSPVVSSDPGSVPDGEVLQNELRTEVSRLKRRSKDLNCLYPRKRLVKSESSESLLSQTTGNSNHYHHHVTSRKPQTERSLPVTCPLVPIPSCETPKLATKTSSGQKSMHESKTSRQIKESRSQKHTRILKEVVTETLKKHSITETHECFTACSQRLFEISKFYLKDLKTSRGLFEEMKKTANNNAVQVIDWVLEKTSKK

[3] = biological target: T3, MTBP lacking amino acids D2 to S55 (293T) (human) (UniProt Q96DY7); experiment: as above
T3 sequence: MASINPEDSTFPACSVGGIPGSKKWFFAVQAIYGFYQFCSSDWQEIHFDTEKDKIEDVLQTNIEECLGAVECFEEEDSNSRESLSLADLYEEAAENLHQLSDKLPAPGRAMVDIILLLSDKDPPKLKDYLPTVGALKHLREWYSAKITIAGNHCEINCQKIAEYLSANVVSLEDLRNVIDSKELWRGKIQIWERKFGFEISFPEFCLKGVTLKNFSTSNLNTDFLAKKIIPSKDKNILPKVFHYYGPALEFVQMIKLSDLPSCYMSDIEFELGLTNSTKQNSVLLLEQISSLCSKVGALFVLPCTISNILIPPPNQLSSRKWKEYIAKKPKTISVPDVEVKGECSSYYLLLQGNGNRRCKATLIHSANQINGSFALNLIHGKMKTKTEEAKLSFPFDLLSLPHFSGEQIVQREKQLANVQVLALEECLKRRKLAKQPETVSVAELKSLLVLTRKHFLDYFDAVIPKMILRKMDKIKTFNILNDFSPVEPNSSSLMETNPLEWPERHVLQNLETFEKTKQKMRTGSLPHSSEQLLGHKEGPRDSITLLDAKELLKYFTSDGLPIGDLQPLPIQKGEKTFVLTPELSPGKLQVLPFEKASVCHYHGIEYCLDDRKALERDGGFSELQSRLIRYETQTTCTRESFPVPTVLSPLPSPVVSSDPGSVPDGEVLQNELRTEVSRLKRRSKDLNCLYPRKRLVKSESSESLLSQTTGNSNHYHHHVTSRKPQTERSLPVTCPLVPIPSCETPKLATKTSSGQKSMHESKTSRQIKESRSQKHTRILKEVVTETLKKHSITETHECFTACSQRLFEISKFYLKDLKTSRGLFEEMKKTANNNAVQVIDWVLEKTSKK

Treslin/TICRR (TopBP1-interacting replication stimulating protein/TopBP1-interacting checkpoint and replication regulator), endogenous (from UniProt Q7Z2Z1 1-1910)
binding [1]: binds
binding [2]: no binding
binding [3]: no binding
